Test results published in PMC6374363.
Like-named read-outs stand apart in the source and are kept apart here. No constants are given. Whether binding was seen depends on the method and setting. For part of these data: Binding seen in cells or lysates may run through a third protein. Some results given as binding are weak or reduced against the parent protein; the word gives no strength. For part of these data: Where a sequence is shown, tags or fusion partners need not be part of it.

By UniProt entry, the sequences of proteins in these tests, tags left out.
UniProt Q08297: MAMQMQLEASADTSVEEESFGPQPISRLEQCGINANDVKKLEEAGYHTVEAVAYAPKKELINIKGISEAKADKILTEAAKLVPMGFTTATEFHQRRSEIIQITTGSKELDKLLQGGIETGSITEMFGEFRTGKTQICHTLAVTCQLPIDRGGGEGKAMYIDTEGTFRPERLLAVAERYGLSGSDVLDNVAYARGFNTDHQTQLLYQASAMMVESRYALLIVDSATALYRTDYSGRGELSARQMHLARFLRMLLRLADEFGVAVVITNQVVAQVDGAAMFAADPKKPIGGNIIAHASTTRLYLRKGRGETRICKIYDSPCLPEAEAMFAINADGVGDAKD

What was measured:
[1] = biological target: T1, endogenous MEILB2 (mouse testis) (mouse (endogenous in testis)) (UniProt Q9D4G2); experiment: co-IP; mouse testis extract; anti-MEILB2 antibody or control IgG on Dynabeads protein A, 6 h at 4 °C; wash with high-salt buffer (400 mM KCl); elution with 0.1 M glycine pH 2.5; immunoblot
T1 sequence: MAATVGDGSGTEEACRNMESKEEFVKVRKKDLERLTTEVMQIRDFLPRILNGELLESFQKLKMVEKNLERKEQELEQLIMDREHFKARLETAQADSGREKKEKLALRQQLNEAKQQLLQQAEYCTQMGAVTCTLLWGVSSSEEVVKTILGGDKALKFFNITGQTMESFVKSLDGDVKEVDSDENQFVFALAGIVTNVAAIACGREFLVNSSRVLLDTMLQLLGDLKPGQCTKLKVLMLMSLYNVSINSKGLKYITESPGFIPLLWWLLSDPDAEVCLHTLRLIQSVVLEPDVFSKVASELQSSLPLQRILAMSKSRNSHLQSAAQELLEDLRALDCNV

[2] = biological target: T2, GFP-BRCA2-M (a.a. 982–2035) (mouse) (UniProt P97929); experiment: co-IP; B16-F1 cells co-expressing GFP-BRCA2 truncations and MEILB2-MYC; extract on GFP-trap_MA beads 2 h at 4 °C; wash with high-salt buffer (400 mM KCl); immunoblot ('GFP pull-down assay')
T2 sequence: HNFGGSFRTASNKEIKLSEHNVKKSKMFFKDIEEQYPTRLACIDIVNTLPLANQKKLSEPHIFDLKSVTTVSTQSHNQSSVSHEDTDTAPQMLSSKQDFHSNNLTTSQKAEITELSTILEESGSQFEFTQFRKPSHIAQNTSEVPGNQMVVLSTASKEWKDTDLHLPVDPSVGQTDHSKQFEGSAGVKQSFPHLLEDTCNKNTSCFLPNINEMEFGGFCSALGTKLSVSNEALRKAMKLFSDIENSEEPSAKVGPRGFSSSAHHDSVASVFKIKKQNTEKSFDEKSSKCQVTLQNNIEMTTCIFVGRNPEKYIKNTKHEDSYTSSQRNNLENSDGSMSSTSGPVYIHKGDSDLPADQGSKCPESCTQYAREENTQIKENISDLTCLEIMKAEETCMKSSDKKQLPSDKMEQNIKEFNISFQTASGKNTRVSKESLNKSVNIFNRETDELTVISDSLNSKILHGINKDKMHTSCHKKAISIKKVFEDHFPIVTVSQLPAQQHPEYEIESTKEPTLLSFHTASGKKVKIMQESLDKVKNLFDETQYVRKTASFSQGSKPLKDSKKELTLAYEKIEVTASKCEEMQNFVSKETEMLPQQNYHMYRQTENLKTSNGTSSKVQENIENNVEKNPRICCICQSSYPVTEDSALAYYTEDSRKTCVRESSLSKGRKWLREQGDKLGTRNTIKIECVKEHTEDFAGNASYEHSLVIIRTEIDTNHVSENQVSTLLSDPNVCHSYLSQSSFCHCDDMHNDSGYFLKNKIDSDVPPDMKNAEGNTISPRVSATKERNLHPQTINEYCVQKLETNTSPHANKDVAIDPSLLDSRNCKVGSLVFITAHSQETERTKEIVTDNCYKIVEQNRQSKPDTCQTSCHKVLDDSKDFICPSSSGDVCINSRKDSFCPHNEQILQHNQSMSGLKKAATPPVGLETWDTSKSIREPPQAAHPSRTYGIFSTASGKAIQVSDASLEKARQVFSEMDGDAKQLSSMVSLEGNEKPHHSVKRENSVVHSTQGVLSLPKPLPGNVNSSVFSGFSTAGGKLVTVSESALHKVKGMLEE

[3] = biological target: T3, LexA-Meilb2 (MEILB2/HSF2BP, bait of the yeast two-hybrid screening) (mouse) (UniProt Q9D4G2); experiment: two-hybrid; Hybrigenics screening: LexA-Meilb2 bait (pB27) against a random-primed mouse testis cDNA library in pP6; mating of YHGX13 and L40ΔGal4 strains; selection without tryptophan, leucine and histidine, with 50 mM 3-aminotriazole
T3 sequence: T1 sequence

[4] = biological target: T1, endogenous MEILB2 (mouse testis) (mouse (endogenous in testis)); experiment: co-IP; mouse testis extract; anti-MEILB2 antibody or control IgG on Dynabeads protein A, 6 h at 4 °C; wash with high-salt buffer (400 mM KCl); elution with 0.1 M glycine pH 2.5; immunoblot; remark: listed apart in the source
[5] = biological target: T4, BRCA2-C (a.a. 2036–3329), bait (pGBKT7) of the yeast two-hybrid assay (mouse) (UniProt P97929); experiment: two-hybrid; baits in pGBKT7 and MEILB2 prey in pGADT7 co-transformed into yeast AH109; selection on SD-tryptophan-leucine-histidine-adenine plates
T4 sequence: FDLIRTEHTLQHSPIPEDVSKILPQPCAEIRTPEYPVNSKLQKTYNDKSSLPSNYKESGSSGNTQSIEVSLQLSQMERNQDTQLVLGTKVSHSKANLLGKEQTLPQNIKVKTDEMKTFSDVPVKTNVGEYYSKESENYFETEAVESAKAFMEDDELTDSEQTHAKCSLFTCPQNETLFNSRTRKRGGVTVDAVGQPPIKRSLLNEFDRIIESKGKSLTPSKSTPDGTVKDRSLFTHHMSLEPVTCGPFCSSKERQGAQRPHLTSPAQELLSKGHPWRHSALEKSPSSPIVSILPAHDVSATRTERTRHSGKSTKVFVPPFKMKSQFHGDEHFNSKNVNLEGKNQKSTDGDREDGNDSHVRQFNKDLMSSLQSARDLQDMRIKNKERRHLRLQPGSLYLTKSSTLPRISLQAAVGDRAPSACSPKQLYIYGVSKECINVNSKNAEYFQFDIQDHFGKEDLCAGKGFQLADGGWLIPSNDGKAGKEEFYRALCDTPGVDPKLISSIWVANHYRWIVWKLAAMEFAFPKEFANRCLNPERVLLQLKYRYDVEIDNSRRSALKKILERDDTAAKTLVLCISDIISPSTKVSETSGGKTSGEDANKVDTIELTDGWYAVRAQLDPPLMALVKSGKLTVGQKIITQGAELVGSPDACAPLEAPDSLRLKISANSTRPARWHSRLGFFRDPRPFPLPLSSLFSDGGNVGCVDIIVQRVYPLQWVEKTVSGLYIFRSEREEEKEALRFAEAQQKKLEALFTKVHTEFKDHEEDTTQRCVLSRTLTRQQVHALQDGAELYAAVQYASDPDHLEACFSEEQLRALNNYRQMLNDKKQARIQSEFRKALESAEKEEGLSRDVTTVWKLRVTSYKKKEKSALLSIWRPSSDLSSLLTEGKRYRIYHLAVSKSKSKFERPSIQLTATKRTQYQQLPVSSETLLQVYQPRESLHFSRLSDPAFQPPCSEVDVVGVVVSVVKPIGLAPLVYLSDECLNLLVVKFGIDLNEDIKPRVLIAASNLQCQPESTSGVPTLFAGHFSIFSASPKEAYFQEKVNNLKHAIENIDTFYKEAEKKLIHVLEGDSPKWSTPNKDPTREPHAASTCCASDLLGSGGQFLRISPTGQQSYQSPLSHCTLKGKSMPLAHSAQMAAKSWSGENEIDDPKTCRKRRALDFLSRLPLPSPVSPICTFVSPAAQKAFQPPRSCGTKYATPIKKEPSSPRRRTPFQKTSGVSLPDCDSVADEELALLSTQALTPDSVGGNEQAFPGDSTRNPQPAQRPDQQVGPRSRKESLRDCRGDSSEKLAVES

[6] = biological target: T5, BRCA2-MBD (a.a. 2117–2339), bait (pGBKT7) of the yeast two-hybrid assay (mouse) (UniProt P97929); experiment: as above
T5 sequence: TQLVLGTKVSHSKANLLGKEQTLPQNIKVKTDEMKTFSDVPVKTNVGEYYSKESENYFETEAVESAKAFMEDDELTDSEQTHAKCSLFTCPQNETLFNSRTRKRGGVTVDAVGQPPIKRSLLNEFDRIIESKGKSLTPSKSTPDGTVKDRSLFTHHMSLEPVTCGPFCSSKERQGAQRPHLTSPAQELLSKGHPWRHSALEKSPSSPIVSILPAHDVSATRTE

In the case of “endogenous BRCA2 (mouse testis) (from UniProt P97929 1-3329)”, the binding [1] is reported as “binds”.

In the case of “endogenous RAD51 (B16-F1 cells) (from UniProt Q08297 1-339)”, the binding [2] is reported as “binds”.

B1: BRCA2 peptide a.a. 1933–2385 (prey clone of the yeast two-hybrid screening) (domain or fragment, UniProt P97929 1933-2385)
chain: TASGKAIQVSDASLEKARQVFSEMDGDAKQLSSMVSLEGNEKPHHSVKRENSVVHSTQGVLSLPKPLPGNVNSSVFSGFSTAGGKLVTVSESALHKVKGMLEEFDLIRTEHTLQHSPIPEDVSKILPQPCAEIRTPEYPVNSKLQKTYNDKSSLPSNYKESGSSGNTQSIEVSLQLSQMERNQDTQLVLGTKVSHSKANLLGKEQTLPQNIKVKTDEMKTFSDVPVKTNVGEYYSKESENYFETEAVESAKAFMEDDELTDSEQTHAKCSLFTCPQNETLFNSRTRKRGGVTVDAVGQPPIKRSLLNEFDRIIESKGKSLTPSKSTPDGTVKDRSLFTHHMSLEPVTCGPFCSSKERQGAQRPHLTSPAQELLSKGHPWRHSALEKSPSSPIVSILPAHDVSATRTERTRHSGKSTKVFVPPFKMKSQFHGDEHFNSKNVNLEGKNQKSTDGD
B1 was tested, and the binding [3] was “binds”.

B2: endogenous SPATA22 (mouse testis) (protein, UniProt Q5SV06 1-358)
chain: MKRNLNESSARSTAGCLPVPLFNQKKRNRQPLTSNPLQNDPGVSTVSDSYGSPSFPTDWAWEAVNPEVAPLKKTVNTGQIPASASYPWRSQDSVSKSIQSNAERSQSAWGYRGNNRNTSLRTWDFRPQHKTVSPAANSEFSSCPVNLGAQQQKQFQTPEFPNLPGHKEAEVPRQTCLSKLPGSTMKGPDRASALQAFKPSFQQNPFKKTVLGDIPRENSLKEGTLHQLKEKDNSLRIISAVIESMKYWRAHVQKTVLLFEILAVLDSAVTSGPHYSKTFLMRDGKNILPCVFYEIDRELPRLIRGRVHRCVGHYDPDKNIFKCVSVRPASASEQKTFQAFVTIADAEMKYHTKVTNEM
For B2, the binding [4] was “binds”.

B3: BRCA2 peptide a.a. 2028–2339 (prey clone of the yeast two-hybrid screening) (domain or fragment, UniProt P97929 2028-2339)
chain: KVKGMLEEFDLIRTEHTLQHSPIPEDVSKILPQPCAEIRTPEYPVNSKLQKTYNDKSSLPSNYKESGSSGNTQSIEVSLQLSQMERNQDTQLVLGTKVSHSKANLLGKEQTLPQNIKVKTDEMKTFSDVPVKTNVGEYYSKESENYFETEAVESAKAFMEDDELTDSEQTHAKCSLFTCPQNETLFNSRTRKRGGVTVDAVGQPPIKRSLLNEFDRIIESKGKSLTPSKSTPDGTVKDRSLFTHHMSLEPVTCGPFCSSKERQGAQRPHLTSPAQELLSKGHPWRHSALEKSPSSPIVSILPAHDVSATRTE
B3 was tested, and the binding [3] was “binds”.

B4: BRCA2 peptide a.a. 2117–2371 (prey clone of the yeast two-hybrid screening) (domain or fragment, UniProt P97929 2117-2371)
chain: TQLVLGTKVSHSKANLLGKEQTLPQNIKVKTDEMKTFSDVPVKTNVGEYYSKESENYFETEAVESAKAFMEDDELTDSEQTHAKCSLFTCPQNETLFNSRTRKRGGVTVDAVGQPPIKRSLLNEFDRIIESKGKSLTPSKSTPDGTVKDRSLFTHHMSLEPVTCGPFCSSKERQGAQRPHLTSPAQELLSKGHPWRHSALEKSPSSPIVSILPAHDVSATRTERTRHSGKSTKVFVPPFKMKSQFHGDEHFNSKN
With B4 the binding [3] was “binds”.

B5: MEILB2 (prey, pGADT7) of the yeast two-hybrid assay (protein, UniProt Q9D4G2 1-338)
chain: T1 sequence
B5 was tested, and the binding [5] was “binds” and the binding [6] was “binds”.

B6: endogenous DMC1 (mouse testis) (protein, UniProt Q61880 1-340)
chain: MKEDQVVQEESGFQDDEESLFQDIDLLQKHGINMADIKKLKSVGICTIKGIQMTTRRALCNVKGLSEAKVEKIKEAANKLIEPGFLTAFQYSERRKMVFHITTGSQEFDKLLGGGIESMAITEAFGEFRTGKTQLSHTLCVTAQLPGTGGYSGGKIIFIDTENTFRPDRLRDIADRFNVDHEAVLDNVLYARAYTSEHQMELLDYVAAKFHEEAGIFKLLIIDSIMALFRVDFSGRGELAERQQKLAQMLSRLQKISEEYNVAVFVTNQMTADPGATMTFQADPKKPIGGHILAHASTTRISLRKGRGELRIAKIYDSPEMPENEATFAITAGGIGDAKE
With B6 the binding [4] was “no binding”.
